Assay results published in the BET-seq Pho4 binding data (Le et al. 2018).
The other results are listed elsewhere or left out. These are noisy estimates, calculated here from bound and input reads.

Each sequence was assayed against T1, Pho4 (S. cerevisiae) (UniProt P07270) (assay: relative binding free energy (BET-seq); higher = weaker binding). Conditions: reference: library average.
T1 sequence: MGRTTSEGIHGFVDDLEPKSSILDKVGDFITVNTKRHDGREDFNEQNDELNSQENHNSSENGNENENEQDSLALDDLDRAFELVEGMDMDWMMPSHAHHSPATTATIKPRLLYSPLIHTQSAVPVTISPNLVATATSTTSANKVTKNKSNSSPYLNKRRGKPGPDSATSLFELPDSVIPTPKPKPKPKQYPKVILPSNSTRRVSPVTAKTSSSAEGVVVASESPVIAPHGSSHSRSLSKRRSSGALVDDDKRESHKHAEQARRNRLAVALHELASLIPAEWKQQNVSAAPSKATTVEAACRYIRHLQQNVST

Question: How did the “relative binding free energy” value turn out when TTTGTCACGTGCGGTC was run?
Answer: Its value is 0.14 kcal/mol.

Question: GAAGTCACGTGGTGCT was tested. Which “relative binding free energy” value did it give?
Answer: Its value is -0.04 kcal/mol.

Question: For TAGGGCACGTGTTGAG, which “relative binding free energy” value is on record?
Answer: The value was -0.05 kcal/mol.

Question: How did the “relative binding free energy” value turn out when ATGGGCACGTGTGGTA was run?
Answer: The value was -0.11 kcal/mol.

Question: Which “relative binding free energy” value does the source give for GTACGCACGTGGGGTT here?
Answer: The value was -0.17 kcal/mol.

Question: How did the “relative binding free energy” value turn out when ATGGTCACGTGATGTA was run?
Answer: The value was 0.15 kcal/mol.

Question: How did the “relative binding free energy” value turn out when ATAAGCACGTGTTGGG was run?
Answer: The value was -0.07 kcal/mol.

Question: Which “relative binding free energy” value does the source give for GAGCGCACGTGAATGG here?
Answer: Its value is 0.27 kcal/mol.

Question: With TTGCACACGTGGTTGT as the sequence, how does the “relative binding free energy” value read?
Answer: Its value is -0.1 kcal/mol.

Question: With ATTGGCACGTGGGTTC as the sequence, how does the “relative binding free energy” value read?
Answer: The value was -0.41 kcal/mol.

Question: For TACGGCACGTGTAGTG, which “relative binding free energy” value is on record?
Answer: The value was -0.03 kcal/mol.

Question: With TGGATCACGTGGTATG as the sequence, how does the “relative binding free energy” value read?
Answer: Its value is 0.04 kcal/mol.

Question: How did the “relative binding free energy” value turn out when CTGTGCACGTGGGGTC was run?
Answer: The value was -0.19 kcal/mol.

Question: For AGTGTCACGTGAAGCG, which “relative binding free energy” value is on record?
Answer: The value was 0.28 kcal/mol.

Question: With GGTCTCACGTGTTGAT as the sequence, how does the “relative binding free energy” value read?
Answer: Its value is 0.31 kcal/mol.

Question: With ATCAGCACGTGGGGTA as the sequence, how does the “relative binding free energy” value read?
Answer: The value was -0.25 kcal/mol.

Question: How did the “relative binding free energy” value turn out when GTTTTCACGTGCGTAG was run?
Answer: The value was 0.34 kcal/mol.

Question: How did the “relative binding free energy” value turn out when TGAGACACGTGTGGTC was run?
Answer: The value was 0.23 kcal/mol.

Question: How did the “relative binding free energy” value turn out when GGAAGCACGTGCTTGG was run?
Answer: Its value is -0.08 kcal/mol.

Question: With TAACTCACGTGGGTTA as the sequence, how does the “relative binding free energy” value read?
Answer: Its value is 0.02 kcal/mol.

Question: Which “relative binding free energy” value does the source give for TGCGCCACGTGGTGGC here?
Answer: Its value is -0.2 kcal/mol.

Question: ATATTCACGTGACGGG was tested. Which “relative binding free energy” value did it give?
Answer: Its value is 0.22 kcal/mol.

Question: With GTAGGCACGTGACTGT as the sequence, how does the “relative binding free energy” value read?
Answer: Its value is 0 kcal/mol.

Question: For TTACTCACGTGGTGTA, which “relative binding free energy” value is on record?
Answer: Its value is 0.1 kcal/mol.

Question: For TGACGCACGTGGTGAA, which “relative binding free energy” value is on record?
Answer: The value was -0.1 kcal/mol.

Question: TCAGGCACGTGAGTTA was tested. Which “relative binding free energy” value did it give?
Answer: The value was 0.11 kcal/mol.

Question: TGTGACACGTGAGATA was tested. Which “relative binding free energy” value did it give?
Answer: Its value is 0.16 kcal/mol.

Question: GTGGGCACGTGATGGA was tested. Which “relative binding free energy” value did it give?
Answer: Its value is 0.09 kcal/mol.

Question: AGGTTCACGTGGATAA was tested. Which “relative binding free energy” value did it give?
Answer: Its value is 0.17 kcal/mol.

Question: With TGTGACACGTGAGTAA as the sequence, how does the “relative binding free energy” value read?
Answer: The value was 0.12 kcal/mol.

Question: With TGCCGCACGTGGTGAG as the sequence, how does the “relative binding free energy” value read?
Answer: The value was -0.11 kcal/mol.

Question: With GAAGGCACGTGAGTCG as the sequence, how does the “relative binding free energy” value read?
Answer: The value was 0.21 kcal/mol.

Question: With TGGCTCACGTGATTTT as the sequence, how does the “relative binding free energy” value read?
Answer: The value was 0.31 kcal/mol.

Question: For TAGCACACGTGGTTGG, which “relative binding free energy” value is on record?
Answer: Its value is 0.01 kcal/mol.

Question: How did the “relative binding free energy” value turn out when TGGGTCACGTGGTTTT was run?
Answer: The value was 0.23 kcal/mol.

Question: For TAGTGCACGTGGACTG, which “relative binding free energy” value is on record?
Answer: Its value is -0.14 kcal/mol.

Question: Which “relative binding free energy” value does the source give for TAGCTCACGTGGTGTA here?
Answer: Its value is 0.21 kcal/mol.

Question: For GTTAACACGTGAGAGG, which “relative binding free energy” value is on record?
Answer: Its value is 0.09 kcal/mol.

Question: TGAATCACGTGTAGAG was tested. Which “relative binding free energy” value did it give?
Answer: Its value is 0.17 kcal/mol.

Question: For TTGATCACGTGTAAAT, which “relative binding free energy” value is on record?
Answer: The value was 0.23 kcal/mol.

Question: With CTGTTCACGTGGTGCG as the sequence, how does the “relative binding free energy” value read?
Answer: The value was -0.04 kcal/mol.

Question: GTCGTCACGTGGTGCG was tested. Which “relative binding free energy” value did it give?
Answer: The value was 0.09 kcal/mol.

Question: With TAGATCACGTGGCTGG as the sequence, how does the “relative binding free energy” value read?
Answer: Its value is 0.18 kcal/mol.

Question: With ATGGCCACGTGGGTTC as the sequence, how does the “relative binding free energy” value read?
Answer: Its value is -0.06 kcal/mol.

Question: How did the “relative binding free energy” value turn out when GTTGACACGTGTAGGA was run?
Answer: The value was 0.11 kcal/mol.

Question: How did the “relative binding free energy” value turn out when AAGTCCACGTGGTGCG was run?
Answer: Its value is 0 kcal/mol.

Question: With CTGGGCACGTGTTGAA as the sequence, how does the “relative binding free energy” value read?
Answer: Its value is -0.14 kcal/mol.

Question: TATTACACGTGTCTAG was tested. Which “relative binding free energy” value did it give?
Answer: Its value is 0.07 kcal/mol.

Question: For AGTAACACGTGTGCTT, which “relative binding free energy” value is on record?
Answer: The value was 0.03 kcal/mol.

Question: For CGGAACACGTGTTTGT, which “relative binding free energy” value is on record?
Answer: The value was 0.06 kcal/mol.

Question: How did the “relative binding free energy” value turn out when GGGAACACGTGTGTCG was run?
Answer: Its value is 0.07 kcal/mol.

Question: With TATAACACGTGGGAGA as the sequence, how does the “relative binding free energy” value read?
Answer: The value was -0.12 kcal/mol.

Question: CATTTCACGTGTTGTT was tested. Which “relative binding free energy” value did it give?
Answer: Its value is 0.15 kcal/mol.

Question: TGTTCCACGTGATTGA was tested. Which “relative binding free energy” value did it give?
Answer: The value was 0.22 kcal/mol.

Question: How did the “relative binding free energy” value turn out when TTGTACACGTGGTATA was run?
Answer: Its value is -0.12 kcal/mol.

Question: For GTTCTCACGTGGGTCG, which “relative binding free energy” value is on record?
Answer: Its value is 0.24 kcal/mol.

Question: GGGCACACGTGGGAGC was tested. Which “relative binding free energy” value did it give?
Answer: The value was 0.08 kcal/mol.

Question: How did the “relative binding free energy” value turn out when GTTTGCACGTGCATGT was run?
Answer: The value was 0.03 kcal/mol.

Question: Which “relative binding free energy” value does the source give for TATGACACGTGAGCGG here?
Answer: The value was 0.17 kcal/mol.

Question: For GGTGGCACGTGCGAAG, which “relative binding free energy” value is on record?
Answer: The value was -0.09 kcal/mol.

Question: Which “relative binding free energy” value does the source give for ATGTGCACGTGGGAAG here?
Answer: The value was -0.1 kcal/mol.

Question: GTGTTCACGTGTCTTG was tested. Which “relative binding free energy” value did it give?
Answer: The value was 0.32 kcal/mol.

Question: GAATACACGTGGGTGT was tested. Which “relative binding free energy” value did it give?
Answer: Its value is -0.04 kcal/mol.

Question: CACGTCACGTGGGGAG was tested. Which “relative binding free energy” value did it give?
Answer: Its value is 0.07 kcal/mol.

Question: For TATATCACGTGGGTCA, which “relative binding free energy” value is on record?
Answer: Its value is 0.03 kcal/mol.

Question: How did the “relative binding free energy” value turn out when AGGGGCACGTGACGTT was run?
Answer: Its value is -0.08 kcal/mol.

Question: With GCTTTCACGTGGGGAT as the sequence, how does the “relative binding free energy” value read?
Answer: Its value is 0.3 kcal/mol.

Question: With AAGTGCACGTGAAAGT as the sequence, how does the “relative binding free energy” value read?
Answer: The value was 0.29 kcal/mol.

Question: Which “relative binding free energy” value does the source give for GTTGGCACGTGTCAGG here?
Answer: The value was -0.13 kcal/mol.

Question: Which “relative binding free energy” value does the source give for TATATCACGTGGCGTG here?
Answer: The value was 0.07 kcal/mol.

Question: How did the “relative binding free energy” value turn out when AGGTTCACGTGGGAAG was run?
Answer: Its value is 0.19 kcal/mol.

Question: Which “relative binding free energy” value does the source give for TTATGCACGTGCTTGA here?
Answer: The value was -0.09 kcal/mol.

Question: Which “relative binding free energy” value does the source give for TAGGCCACGTGGGATG here?
Answer: Its value is -0.11 kcal/mol.
